Data: PubChem BioAssay AID624417 (National Center for Advancing Translational Sciences (NCATS), 2012)
Screen size: about 410,000 compounds; about 6,400 (1.6%) were called active. This list was built around the results that the source calls inconclusive (neither active nor inactive); the mix of calls is not that of the screen. The call rests on the fitted dose curve; in most records, active means well fitted inhibition curve with a large enough effect; inconclusive means small, poorly fitted or top-dose-only effect; inactive means no such curve, though single readings can be large or run the other way. Potencies of inconclusive entries are doubtful fits and often do not repeat.

molecular target: Glucagon-like peptide 1 receptor (Homo sapiens) (UniProt P43220); assay: qHTS of GLP-1 Receptor Inverse Agonists (Inhibition Mode); details: HEK293 GLP-1R CRE-luciferase, luminescence, 24 h, GLP-1R form is constitutively active; activity change, negative = inhibition: at 38.3 µM (top of the series) unless noted; further: nearly all actives have a fitted effect of over 55% in size
Sequence of UniProt P43220 (P43220 whole entry, looked up): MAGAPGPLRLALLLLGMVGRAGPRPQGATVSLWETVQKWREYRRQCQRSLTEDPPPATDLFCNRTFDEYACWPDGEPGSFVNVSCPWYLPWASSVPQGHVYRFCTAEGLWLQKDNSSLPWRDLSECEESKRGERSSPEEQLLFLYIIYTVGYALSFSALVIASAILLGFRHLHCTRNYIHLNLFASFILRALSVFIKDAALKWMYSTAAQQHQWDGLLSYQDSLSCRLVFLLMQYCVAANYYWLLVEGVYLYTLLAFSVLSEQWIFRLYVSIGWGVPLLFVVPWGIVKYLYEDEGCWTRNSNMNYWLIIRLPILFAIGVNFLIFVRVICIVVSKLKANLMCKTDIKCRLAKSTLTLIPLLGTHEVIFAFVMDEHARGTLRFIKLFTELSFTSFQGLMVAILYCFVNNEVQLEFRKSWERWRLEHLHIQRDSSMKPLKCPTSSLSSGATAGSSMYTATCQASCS
Method in brief: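 Readout was luciferase luminescence, measured 12 min after detection reagent at room temperature. Beforehand, GLP-1R reporter HEK293 cells had sat 12 h, then received compounds for 24 hr at 37 deg C.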
On the % scale 0 is the no-effect control and ±100 the full control effect; potency means the concentration at half of the fitted maximal effect; tags describe the fitted curve by direction and shape.

Potency, inactive:
CC(NC(=O)CCl)c1ccc(Cl)c(Cl)c1 (stereo not given)
COC(=O)c1cccc(NC(=O)CSc2nnc(C)n2C)c1
COc1ccc(NC(=O)C2=C(C)Nc3ncnn3C2c2ccc[nH]2)cc1 (stereo not given)
COc1ccc(CCNC(=O)C2CCCN(S(=O)(=O)c3ccc4c(c3)oc(=O)n4C)C2)cc1OC (stereo not given)
O=C(CNC(=O)c1cccc(F)c1)N/N=C/c1cc(Br)ccc1OCc1ccccc1
O=[N+]([O-])c1ccc(O)c(C=Nc2cccc3ncccc23)c1
Cc1ccc(C)c(S(=O)(=O)Nc2cc(SCC(=O)O)c(O)c3ccccc23)c1
COc1ccc(NC(=O)C2CCN(S(=O)(=O)c3ccc(C)cc3)CC2)cc1OC
C/C(=N\NC(=O)c1c[nH]c2ccccc12)c1ccco1

Potency, inconclusive:
O=C(Cn1c(SCC(=O)Nc2ccc(F)cc2)nc2ccccc21)NCc1ccc(F)cc1 28.2 µM [inhibitor, single point]
O=C(c1cc(-c2ccccc2)nn1-c1ccccc1)N1CCN(S(=O)(=O)c2c(F)cccc2F)CC1 1.26 µM [inhibitor, full curve, poor fit]
Cc1ccc(Cc2c(-c3ccc(Cl)cc3)nc3cc(C)c(Br)c(C)n23)cc1 14.1 µM [inhibitor, single point]
COc1ccc(CCN2C(=O)c3[nH]nc(-c4ccccc4O)c3C2c2ccccc2)cc1 (stereo not given) 3.16 µM [inhibitor, single point]
CCOC(=O)C1=C(C)N(C)C(=O)NC1c1c(C)nn(-c2ccc(C)cc2)c1Cl (stereo not given) 14.1 µM [inhibitor, partial curve, poor fit]
CN(CC(=O)Nc1cc(S(=O)(=O)N2CCCCCC2)ccc1Cl)Cc1ccc2c(c1)OCO2 3.98 µM [inhibitor, single point]
CC1CC(C)CN(S(=O)(=O)c2ccc3c(c2)CC(C)N3C(=O)C2CC2)C1 (stereo not given) 28.2 µM [inhibitor, single point]
CC1=C(C(=O)Nc2ccc(C)cc2C)C(c2cccc([N+](=O)[O-])c2)n2nc(C(=O)OC(C)C)nc2N1 (stereo not given) 28.2 µM [inhibitor, single point]
CCOC(=O)C1=C(c2ccccc2)NC(=S)NC1c1ccc(Cl)cc1 (stereo not given) 22.4 µM [inhibitor, partial curve, poor fit]
CC1(Cc2ccc(Cl)s2)C(=O)Nc2c(Cl)ccc(Cl)c21 (stereo not given) 28.2 µM [inhibitor, single point]
CC(C)c1nc(SCC(=O)c2ccc(F)cc2)c2ccccc2n1 10 µM [inhibitor, single point]
COc1cc(C)ccc1OCCOCCOc1ccc(C)cc1[N+](=O)[O-] 10 µM [inhibitor, partial curve, poor fit]
CCCn1c(CC)nc([N+](=O)[O-])c1S(=O)(=O)c1ccccc1 12.6 µM [inhibitor, single point]
Cc1c(C(=O)NCc2ccccc2CN2CCCC2)oc2c(F)cccc12 11.2 µM [inhibitor, partial curve, poor fit]
Cc1ccc(Cn2c(C(CO)Nc3nc(-c4ccc(F)cc4)cs3)nc3ccccc32)cc1 (stereo not given) 28.2 µM [inhibitor, single point]
Cc1ccc(C(=O)NCCc2c[nH]c3ccccc23)s1 8.91 µM [inhibitor, single point]
O=C(CCSCCC(=O)Nc1c(F)c(F)c(F)c(F)c1F)Nc1c(F)c(F)c(F)c(F)c1F 28.2 µM [inhibitor, single point]
CC1(C(=O)NCc2ccccc2)CSCC(=O)N1Cc1cccc(C(F)(F)F)c1 (stereo not given) 22.4 µM [inhibitor, single point]
CC(=O)/C=C\c1cn(-c2ncc(C(F)(F)F)cc2Cl)c2ccccc12 12.6 µM [inhibitor, partial curve, poor fit]
N#CC1=C(N)Oc2cc3ccccc3cc2C1c1cccnc1 (stereo not given) 5.62 µM [inhibitor, full curve, poor fit]
CC(=O)c1cc2cccc(OC3(C)CCN(Cc4ccc5ccccc5c4)C3)c2o1 (stereo not given) 31.6 µM [inhibitor, partial curve, poor fit]
CC1(C(=O)NCCOc2ccccc2Cl)CC1(Cl)Cl (stereo not given) 10 µM [inhibitor, partial curve, poor fit]
C#CC(c1ccccc1)(c1ccccc1)n1ccnc1 12.6 µM [inhibitor, partial curve, poor fit]
COc1ccc(C(=O)/C=C/C(=O)N(Cc2ccccc2OC)C(C(=O)NC2CCCCC2)c2ccncc2)c(O)c1 (stereo not given) 28.2 µM [inhibitor, single point]
COCCOc1cc(NC(=O)c2ccccc2)c(Cl)cc1Cl 11.2 µM [inhibitor, partial curve, poor fit]
O=C(c1ccc(S(=O)(=O)c2cccc(Cl)c2)c([N+](=O)[O-])c1)N1CCN(c2ccccn2)CC1 11.2 µM [inhibitor, partial curve, poor fit]
Cc1ccc(F)cc1NC(=O)N1CCNC(=O)C1CC(=O)Nc1cc(Cl)ccc1Cl (stereo not given) 12.6 µM [inhibitor, partial curve]
CN1CCN(CCCNC(=S)Nc2ccc(F)c(Cl)c2)CC1 31.6 µM [inhibitor, single point]
O=S(=O)(c1ccccc1)c1nc(-c2cccc(Cl)c2)oc1N1CCOCC1 11.2 µM [inhibitor, partial curve, poor fit]
CCOC(=O)c1cc(-c2ccccc2)n(CC2CC(c3ccc(OC)cc3)=NO2)n1 (stereo not given) 11.2 µM [inhibitor, partial curve, poor fit]
C#CCNC(=O)C1=C[C@H](c2csc3ccccc23)C[C@H](OCc2ccc(CO)cc2)O1 11.2 µM [inhibitor, single point]
CCCOC(=O)c1ccc(NC(=O)C(=O)NCC2CCCO2)cc1 (stereo not given) 28.2 µM [inhibitor, single point]
Cc1cccc(C2NC(c3cccc(C)c3)C(C)C(=O)C2C)c1 (stereo not given) 12.6 µM [inhibitor, single point]
CCCCCCCCNC(=O)/C(C#N)=C/c1ccccc1[N+](=O)[O-] 28.2 µM [inhibitor, single point]
Cc1cc(NC(=O)CN2C(=O)NC(CC(C)C)C2=O)ccc1Br (stereo not given) 12.6 µM [inhibitor, single point]
Cc1ccc(NC(=O)CN2C(=O)COc3ccc(S(=O)(=O)N4CCOCC4)cc32)cc1F 2.51 µM [inhibitor, partial curve, poor fit]
CCOC(=O)c1cnc2c(C)cc(Cl)cc2c1NCCCN1CCOCC1 11.2 µM [inhibitor, single point]
CN(C)c1ccc(C(=O)N2CCN(c3cc(C(F)(F)F)nc4ccccc34)CC2)cc1 11.2 µM [inhibitor, single point]
COc1ccc(/C=N/NC(=O)CCn2c3ccccc3c3ccccc32)cc1O 10 µM [inhibitor, partial curve]
O=C(c1ccc(COc2ccc(Cl)cc2)cc1)N1CCCCC1 10 µM [inhibitor, partial curve, poor fit]
CC1CCCN(C(=O)Nc2cccc(NC(=O)N3CCCC(C)C3C)c2)C1C (stereo not given) 7.94 µM [inhibitor, partial curve, poor fit]
COc1cc(Cl)c(C)cc1NC(=O)c1cnn(-c2ccc(F)cc2F)c1C1CCN(C(=O)OC(C)(C)C)CC1 10 µM [inhibitor, partial curve, poor fit]
COc1ccc(NC(=S)N2CCNC(=O)C2CC(=O)Nc2ccc(C)cc2)cc1 (stereo not given) 31.6 µM [inhibitor, single point]
O=C(c1cccc(S(=O)(=O)N2CCc3ccccc3C2)c1)N1CCN(c2ccccc2)CC1 28.2 µM [inhibitor, single point]
CCCCCn1nnnc1-c1nc2cc3ccccc3cc2[nH]c1=O 1.78 µM [inhibitor, partial curve, poor fit]
CC(C)(C)c1ccc(C(=O)N(Cc2ccc(F)cc2)Cc2ccco2)cc1 10 µM [inhibitor, partial curve, poor fit]
Cc1ccc(SC(C)c2nc(-c3ccccc3)no2)cc1 (stereo not given) 28.2 µM [inhibitor, single point]
O=C(CN1C(=O)NC(CCc2ccccc2)C1=O)Nc1ccc(F)c(F)c1F (stereo not given) 28.2 µM [inhibitor, single point]
CCOc1ccccc1NC(=O)C(NCC1CCCCC1)c1ccccc1 (stereo not given) 6.31 µM [inhibitor, partial curve, poor fit]

Potency, active:
Cc1ccccc1-c1cc(C(=O)NCc2ccc(OC(F)(F)F)cc2)n(CC2CC(c3cccnc3)=NO2)n1 (stereo not given) 22.4 µM

Activity change, negative = inhibition, inactive:
CCc1ccc(NC(=O)C(=O)NCc2ccccn2)cc1 20% [at 7.66 µM]
